About 550 (1.1%) of roughly 48,000 compounds were called active. Not shown: some 4% with an inconclusive outcome. Cut-off read from the data, not from the text of the source: active = potency below about 15 µM; inconclusive = mostly about 16 µM to 33 µM; inactive = weaker than that. Some of the results follow.
What follows are compounds tested against Lysosomal acid glucosylceramidase (Homo sapiens) (UniProt P04062) (assay: Glucocerebrosidase). Settings: purified enzyme, resorufin glucoside fluorescence (screen aimed at inhibitors), 20 min; series mostly up to 77 µM.
Sequence of UniProt P04062 (P04062 whole entry, looked up): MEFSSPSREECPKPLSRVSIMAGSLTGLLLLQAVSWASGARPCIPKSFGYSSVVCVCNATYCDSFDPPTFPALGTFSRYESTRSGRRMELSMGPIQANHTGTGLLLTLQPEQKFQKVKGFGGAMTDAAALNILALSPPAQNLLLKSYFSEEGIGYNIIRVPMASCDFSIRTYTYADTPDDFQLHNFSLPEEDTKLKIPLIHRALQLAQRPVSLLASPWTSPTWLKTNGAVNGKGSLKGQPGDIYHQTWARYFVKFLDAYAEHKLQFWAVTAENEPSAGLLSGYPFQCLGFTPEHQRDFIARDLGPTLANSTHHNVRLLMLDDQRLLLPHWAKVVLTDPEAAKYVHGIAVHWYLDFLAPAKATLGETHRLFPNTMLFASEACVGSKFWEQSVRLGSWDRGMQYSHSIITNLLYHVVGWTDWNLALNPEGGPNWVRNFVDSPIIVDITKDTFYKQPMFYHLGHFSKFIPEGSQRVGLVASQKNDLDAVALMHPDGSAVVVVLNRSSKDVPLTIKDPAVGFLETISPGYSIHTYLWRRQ
In short: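 Wild-type enzyme at 0.2 nM final in 50mM citric acid/KH2PO4, 10mM sodium taurocholate, 0.01% tween-20, pH 5.9, with resorufin beta-D-glucopyranoside at 30 uM final. Compounds titrated, 20 min at RT, red fluorescence read; AC50 from titration.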
For `CCc1c(C)[nH]c2ccc(C)cc2c1=O`, the Potency was inactive: > 76.9 µM. `Cc1c(C)c2ccc(OCC(=O)N(C)C)c(C)c2oc1=O` was tested, and the Potency was inactive: > 76.9 µM. `O=C(Nc1ccc(Cl)cc1C(=O)NCc1cccnc1)c1ccco1` was tested, and the Potency was inactive: > 76.9 µM. With `CC1=NC(C(F)(F)F)(C(F)(F)F)C(C#N)=C(C)N1` the Potency was inactive: > 76.9 µM. In the case of `COc1cc(S(=O)(=O)NCCc2ccc3c(c2)OCO3)ccc1-n1cnnn1`, the Potency is reported as inactive: > 76.9 µM. In the case of `O=C1CSC(c2cccs2)N1c1ccccc1` (configuration not stated), the Potency is reported as inactive: > 76.9 µM. `COc1ccc(Cl)cc1Nc1nc(C)cc(=O)[nH]1` was tested, and the Potency was “inactive”. With `Cc1cccc(C(=O)NC2CC(C)(C)NC(C)(C)C2)c1` the Potency was inactive: > 76.9 µM. With `Cc1ccc(NCc2nnc(SCC(=O)N(Cc3ccccc3)C(C)(C)C)o2)c(C)c1` the Potency was inactive: > 76.9 µM. In the case of `Cc1ccc(C)c(Cn2c(=O)n(CCC(=O)NCc3ccco3)c(=O)c3ccccc32)c1`, the Potency is reported as inactive: > 76.9 µM. For `CN(C)S(=O)(=O)c1ccc(S(=O)(=O)N(Cc2ccccn2)Cc2ccco2)cc1`, the Potency was active: 6.66 µM. `COc1ccc(-c2nc(C#N)c(N3CC(C)OC(C)C3)o2)cc1OC` (configuration not stated) was tested, and the Potency was inactive: > 76.9 µM. In the case of `Nc1cc(=O)[nH]c(SCC(=O)Nc2ccc(Br)cc2)n1`, the Potency is reported as inactive: > 76.9 µM. For `O=C(NC1CCCC1)C(c1cccs1)N(C(=O)c1ccco1)c1ccc2c(c1)OCCO2` (configuration not stated), the Potency was inactive: > 76.9 µM. For `O=C(NCCCN1CCOCC1)c1cc(-c2cccs2)on1`, the Potency was inactive: > 76.9 µM. `CC1CCCc2sc3nc(NCc4ccco4)n4ncnc4c3c21` (configuration not stated) was tested, and the Potency was inactive: > 76.9 µM. For `CCOC(=O)N1CCC(NC(=O)C2CCN(C(=O)N3CC(C)Oc4ccc(C)cc43)CC2)CC1` (configuration not stated), the Potency was inactive: > 76.9 µM. With `COc1ccc(S(C)(=O)=O)cc1S(C)(=O)=O` the Potency was inactive: > 76.9 µM. `CCC1CCCCN1S(=O)(=O)c1ccc(S(=O)(=O)N2CCN(S(=O)(=O)CC)CC2)cc1` (configuration not stated) was tested, and the Potency was inactive: > 76.9 µM. For `CCOC(=O)CN(C(=O)CSc1nnc(-c2ccc(OC)c(OC)c2)o1)c1ccc(F)cc1`, the Potency was inactive: > 76.9 µM. In the case of `c1ccc(-c2nnc3sc(CN4CCC5(CC4)OCCO5)cn23)cc1`, the Potency is reported as inactive: > 76.9 µM. With `Cn1c(=O)c2c(nc(CN3CCOCC3)n2CCCO)n(C)c1=O` the Potency was inactive: > 76.9 µM. In the case of `Cc1ccc2cc(CN(Cc3cccs3)C(=O)c3ccco3)c3nnnn3c2c1C`, the Potency is reported as inactive: > 76.9 µM. `O=C(c1ccc(C23CC4CC(CC(C4)C2)C3)o1)N1CCOCC1` was tested, and the Potency was inactive: > 76.9 µM. For `Cn1c(Cc2ccccc2)nnc1SCC(=O)N1CCN(c2ccccc2)CC1`, the Potency was inactive: > 76.9 µM. With `CCOc1ccc(N2CC(O)Cn3c2nc2c3c(=O)n(CCCc3ccccc3)c(=O)n2C)cc1` (configuration not stated) the Potency was inactive: > 76.9 µM. `CCOC(=O)C(CC)n1cnc2sc3c(c2c1=O)CCC3` (configuration not stated) was tested, and the Potency was inactive: > 76.9 µM. For `O=C(COC(=O)c1ccc(S(=O)(=O)N2CCOCC2)cc1)Nc1nc(-c2ccccc2)cs1`, the Potency was inactive: > 76.9 µM. With `CCOCC(=O)Nc1nc2ccc(OC)cc2s1` the Potency was inactive: > 76.9 µM. With `CCOC(=O)c1sc(NCC2CCCO2)nc1C` (configuration not stated) the Potency was inactive: > 76.9 µM. `CCCS(=O)(=O)N1CCCC(C(=O)NCCCOCC)C1` (configuration not stated) was tested, and the Potency was inactive: > 76.9 µM. In the case of `CCOC(=O)c1c(C)[nH]c(C)c1C(=O)COC(=O)CCOc1ccccc1OC`, the Potency is reported as inactive: > 76.9 µM. With `Brc1ccc(-c2nc(-c3cccnc3)no2)o1` the Potency was inactive: > 76.9 µM. For `C=C(C)Cn1c(CCNC(=O)CCC)nc2ccccc21`, the Potency was inactive: > 76.9 µM. For `COc1ccc(-n2c(SCC(=O)Nc3ccc4c(c3)OCO4)nc3ccccc3c2=O)cc1`, the Potency was inactive: > 76.9 µM. For `Cc1cc(=O)n2nc(N3CCCC(C(=O)NCCC4=CCCCC4)C3)sc2n1` (configuration not stated), the Potency was inactive: > 76.9 µM. For `Cc1cc(NC(=O)CSc2nnc(COc3cccc(C)c3C)n2C)no1`, the Potency was inactive: > 76.9 µM. In the case of `O=C(CN1CCN(CCC(=O)Nc2ccccc2F)CC1)Nc1ccc(F)cc1`, the Potency is reported as inactive: > 76.9 µM. In the case of `c1ccc(-c2cnc(CSc3ncnc4sccc34)o2)cc1`, the Potency is reported as inactive: > 76.9 µM. With `CNC(=O)NCCN1CCCC1=O` the Potency was inactive: > 76.9 µM. In the case of `CCOC(=O)N1CCN(C(=O)CSc2nnc(-c3cc(OC)cc(OC)c3)o2)CC1`, the Potency is reported as inactive: > 76.9 µM. `O=C(Nc1ccc2nn(-c3ccccc3)nc2c1)c1cccs1` was tested, and the Potency was inactive: > 15.4 µM. In the case of `CC1CCCN(S(=O)(=O)c2cccc(-c3cn4cccnc4n3)c2)C1` (configuration not stated), the Potency is reported as inactive: > 76.9 µM. With `CC(C)(C)NCC(O)COc1ccccc1C(C)(C)C` (configuration not stated) the Potency was inactive: > 76.9 µM. In the case of `CC(=O)Nc1ccc(SCC(=O)c2cc(C)n(Cc3cccs3)c2C)cc1`, the Potency is reported as inactive: > 76.9 µM. With `O=S(=O)(c1ccc2nc(-c3ccco3)c(-c3ccco3)nc2c1)N1CCOCC1` the Potency was inactive: > 76.9 µM. With `COCCCn1c(Cc2csc(Nc3cccc(Cl)c3)n2)nnc1SCC(=O)OC` the Potency was inactive: > 76.9 µM. For `CCS(=O)(=O)N1CCCC(C(=O)NCCN(C)Cc2ccccc2)C1` (configuration not stated), the Potency was inactive: > 76.9 µM. For `Cc1cc(NC(=O)CSc2nnc(Cc3ccccc3)o2)no1`, the Potency was inactive: > 76.9 µM. In the case of `Cc1noc(/C=C/N(C)C)c1S(=O)(=O)NC1CCCCC1`, the Potency is reported as inactive: > 76.9 µM. For `Cn1c(SCC(=O)N2CCCc3ccccc32)nnc1-c1cccs1`, the Potency was inactive: > 76.9 µM. With `CC(C)(C)OC(=O)N1CCC(c2c(C(=O)O)cnn2-c2ccc(Cl)cc2)CC1` the Potency was inactive: > 76.9 µM. For `COc1cc(OC)c(S(=O)(=O)N2CCCCC2)cc1S(=O)(=O)N1CCCCC1`, the Potency was inactive: > 76.9 µM. `Cc1noc(C)c1C(=O)Nc1nnc(-c2ccccc2)s1` was tested, and the Potency was inactive: > 76.9 µM. With `CC(=O)Nc1ccc(OC(=O)C(CCS(C)(=O)=O)N2C(=O)c3ccccc3C2=O)cc1` (configuration not stated) the Potency was inactive: > 76.9 µM. With `CCn1c(SCC(=O)Nc2cc(C)on2)nc2sc3c(c2c1=O)CCCC3` the Potency was inactive: > 76.9 µM. `Nc1nc(-c2ccco2)nn1C(=O)c1cccnc1` was tested, and the Potency was inactive: > 76.9 µM.

Reference: PubChem BioAssay AID360 (National Center for Advancing Translational Sciences (NCATS), 2006)
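Note: the screen sought inhibitors.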
Potency is the fitted concentration of half-maximal effect.
